# According to the supplement of paper PMC4604168 (melanoma cell lines):
# The other results are listed elsewhere or left out. Most values come without repeats; read them as rough.
# System: MZ2-MEL
# Assay: cell count relative to DMSO control; melanoma cells; higher = more viable cells
# Conditions: library dose: low library concentration; 72 h; first compound 0.4 µM
# 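Further: cell number obtained by counting DAPI-stained nuclei in high-throughput microscope images with image analysis software, screen run in 1,536-well plates.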
row,SMILES,cell count [%]
1,Cn1sc(=O)n(Cc2ccccc2)c1=O + c1cc(-c2cnn3cc(-c4ccc(OCCN5CCCCC5)cc4)cnc23)ccn1 [Dorsomorphin] (partner dose 0.4 µM),97.6
2,C[C@@H](N)c1ccc(C(=O)Nc2ccnc3[nH]ccc23)cc1 + Oc1nc(-c2ccc(C(F)(F)F)cc2)nc2c1CSCC2 [XAV939] (partner dose 2 µM),69.9
3,CCCCCCCCCCCCCCCCCCOP(=O)([O-])OC1CC[N+](C)(C)CC1 [Perifosine] + Cn1cc(/C=C2\C(=O)Nc3cccnc32)c2ccccc21 [GW441756] (partner dose 0.4 µM),95.5
4,C[C@@H](N)c1ccc(C(=O)Nc2ccnc3[nH]ccc23)cc1 + CN(NC(=O)CC(=O)NN(C)C(=S)c1ccccc1)C(=S)c1ccccc1 [STA4783] (partner dose 0.006 µM),87.2
5,C[C@@H](N)c1ccc(C(=O)Nc2ccnc3[nH]ccc23)cc1 + COc1cc2ncnc(Nc3ccc(Oc4ccccc4)cc3)c2cc1OC [SrcI1] (partner dose 2 µM),67.9
6,Cn1sc(=O)n(Cc2ccccc2)c1=O + N#Cc1c(O)c2c(-c3ccc(-c4ccccc4O)cc3)csc2[nH]c1=O [A769662] (partner dose 2 µM),103
7,CCCCCCCCCCCCCCCCCCOP(=O)([O-])OC1CC[N+](C)(C)CC1 [Perifosine] + c1cc(-c2cnn3cc(-c4ccc(OCCN5CCCCC5)cc4)cnc23)ccn1 [Dorsomorphin] (partner dose 0.4 µM),96.5
8,Cn1sc(=O)n(Cc2ccccc2)c1=O + O=c1cc(-c2cccc3c2Sc2ccccc2S3)oc(N2CCOCC2)c1 [KU55933] (partner dose 1 µM),107
9,C[C@@H](N)c1ccc(C(=O)Nc2ccnc3[nH]ccc23)cc1 + COc1cc2c(Oc3ccc4[nH]c(C)cc4c3F)ncnc2cc1OCCCN1CCCC1 [cediranib] (partner dose 0.4 µM),84.2
10,C[C@@H](N)c1ccc(C(=O)Nc2ccnc3[nH]ccc23)cc1 + COc1ccc(-c2ccc3c(N4CCOCC4)nc(N4C[C@@H](C)O[C@@H](C)C4)nc3n2)cc1CO [KU0063794] (partner dose 0.02 µM),73.2
11,C[C@@H](N)c1ccc(C(=O)Nc2ccnc3[nH]ccc23)cc1 + COC(=O)c1sccc1S(=O)(=O)Nc1ccc(Nc2ccccc2)cc1OC [GSK0660] (partner dose 1 µM),78.3
12,C[C@@H](N)c1ccc(C(=O)Nc2ccnc3[nH]ccc23)cc1 + COc1cc(Nc2ncc(F)c(Nc3ccc4c(n3)NC(=O)C(C)(C)O4)n2)cc(OC)c1OC [Tamatinib] (partner dose 0.4 µM),89.5
13,Cn1sc(=O)n(Cc2ccccc2)c1=O + CCc1ccc(CCOc2ccc(CC3SC(=O)NC3=O)cc2)nc1 [pioglitazone] (partner dose 2 µM),107
14,Cn1sc(=O)n(Cc2ccccc2)c1=O + O=C(O)C(=O)Nc1sc2c(c1C(=O)O)CCNC2 [TCS401] (partner dose 1.66667 µM),99.4
15,CCCCCCCCCCCCCCCCCCOP(=O)([O-])OC1CC[N+](C)(C)CC1 [Perifosine] + O=S(=O)(c1ccccc1)N(CC(F)(F)F)c1ccc(C(O)(C(F)(F)F)C(F)(F)F)cc1 [T0901317] (partner dose 1.4 µM),98.9
16,CCCCCCCCCCCCCCCCCCOP(=O)([O-])OC1CC[N+](C)(C)CC1 [Perifosine] + N#Cc1c(O)c2c(-c3ccc(-c4ccccc4O)cc3)csc2[nH]c1=O [A769662] (partner dose 2 µM),99.8
17,C[C@@H](N)c1ccc(C(=O)Nc2ccnc3[nH]ccc23)cc1 + C[C@@H]1CCN(C(=O)CC#N)C[C@@H]1N(C)c1ncnc2[nH]ccc12 [CP690550] (partner dose 1 µM),88.5
18,Cn1sc(=O)n(Cc2ccccc2)c1=O + Oc1nc(-c2ccc(C(F)(F)F)cc2)nc2c1CSCC2 [XAV939] (partner dose 2 µM),107
19,CCCCCCCCCCCCCCCCCCOP(=O)([O-])OC1CC[N+](C)(C)CC1 [Perifosine] + CC(C)CCN1c2nc(Nc3cc(F)c(O)c(F)c3)ncc2N(C)C(=O)C1C [BID1870] (partner dose 0.2 µM),104
20,Cn1sc(=O)n(Cc2ccccc2)c1=O + COc1cc2ncnc(Nc3ccc(Oc4ccccc4)cc3)c2cc1OC [SrcI1] (partner dose 2 µM),89.1
